Data taken from article PMC12136788.
The list shows a part of the results.

T1: UNK ZnF1-3 (human, UniProt Q9C0B0 31-174)
T1 sequence: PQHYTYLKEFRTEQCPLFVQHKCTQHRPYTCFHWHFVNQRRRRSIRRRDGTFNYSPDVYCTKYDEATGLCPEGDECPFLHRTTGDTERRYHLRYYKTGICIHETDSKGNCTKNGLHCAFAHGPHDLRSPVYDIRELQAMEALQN

B1: chr17:48526647:48526648:-_ENSMUSG00000023994_ENSMUST00000046719|mus_hu|FALSE|FALSE (ssRNA)
RNA: GGGAGUUCUACAGUCCGACGAUCGUGGGCUACUAUGGUGUGCCAAAGUGACCACAAGAAAAGGGUCAUGAGCUAUUUGAAAUGCAAUGACAAAAUGACAACUGAAGCAUUUCAAACAAAAUUCAAAGUCAUCUCCCCCCAAAUCAACAGAGGAUUGAGCAUCA
B2: chr2:73467608:73467609:+_ENSG00000135624_ENST00000258091|hu_mus|FALSE|FALSE (ssRNA)
RNA: GGGAGUUCUACAGUCCGACGAUCAUCCUGGGACUUGGCUAUGUCCACUAAAGUCUUUGCUGCAGGAUGGACAACAUCGAGGAGUUUCAGAAUUGUGGCCCCAUCAUUAGAUAUUGUUGCUUUGCCUCGGCCAUCCACAAUAAGCAACAGAGGAUUGAGCAUCA
B3: chr10:19624517:19624518:-_ENSMUSG00000020003_ENSMUST00000020182|mus_hu|FALSE|FALSE (ssRNA)
RNA: GGGAGUUCUACAGUCCGACGAUCUUCGUUGUUCUCACUCCAAGUCACAUCAAACAAACCAUCAUUCCAGUCAAAGCUUCUAAAAAGCCUUAGCCCAGCUUCAUCUGGAUCCAAUAUUAGUAGGGUUCCACAGCCCGCGAUGCCCAACAGAGGAUUGAGCAUCA
B4: chr5:71490416:71490417:+_ENSG00000131711_ENST00000296755|hu_mus|FALSE|FALSE (ssRNA)
RNA: GGGAGUUCUACAGUCCGACGAUCAUACUGCAUUUCCUUGCUGCUUUUGACUGGGUUAAGCACGUACAUCUCAAGCUUGCCCACUCCCAUCUUCUGGAACAGGAUGACAGGCUCAAUGGUAUUGCCUACACUUCUAAAUAGAGGCAACAGAGGAUUGAGCAUCA
B5: chr9:110451649:110451650:+_ENSMUSG00000044791_ENSMUST00000153838|mus_mus|FALSE|FALSE (ssRNA)
RNA: GGGAGUUCUACAGUCCGACGAUCCAUUGAUAUAGCAUCUGUCUUAGAAGUACAAAAUGUUGCCACAUCAGCUUCUGUCUCUGGAGAUCCGUUUACAUUUAAUUCAAUGGAACAAAAAUUUCUUAAUUGAUCAUUUUUCACUUUCAACAGAGGAUUGAGCAUCA
B6: 76251920_76253262_95_CDS_ENSG00000137955_ENST00000319942|human|control|control (ssRNA)
RNA: GGGAGUUCUACAGUCCGACGAUCUGCGAUAUAAUCUGCAUGUUUCUCCAAUAACAAAGUGUCCGGUGCAUCUGACUUGAUAAUAACAUCCUUCUGUGGAGUGCCCAUGUCUAACAGGGAAAGGAGAGAGCAGGGUCAGUUCCUCAACAGAGGAUUGAGCAUCA

Biological target: T1, UNK ZnF1-3
Assay: nsRBNS (natural sequence RNA bind-n-seq); RBNS binding buffer (assumed for nsRBNS): 25 mM Tris pH 7.5, 150 mM KCl, 3 mM MgCl2, 0.01% Triton X-100, 500 ug/ml BSA, 20 U/ml SUPERase-In, 4 C; UNK is unkempt and MSI1 is Musashi-1; names of the RNAs are library labels; protein concentration not given here; high values mean tight binding

How did the binding signal turn out when B1 was run?
Its binding signal is 1.17 enrichment R.

With B2 as the binder, how does the binding signal read?
The binding signal was 0.992 enrichment R.

With B3 as the binder, how does the binding signal read?
The binding signal was 1 enrichment R.

B4 was tested. Which binding signal did it give?
The binding signal was 0.566 enrichment R.

For B5, which binding signal is on record?
The binding signal was 0.661 enrichment R.

Which binding signal does the source give for B6 here?
Its binding signal is 1.25 enrichment R.
